This is an account of results in US20220064691A1 (ABERA BIOSCIENCE, published 2022).

Experiment [1] deals with T1, Pla2-SpT.
T1 construct: also called Pla2-SpyTag
T1 chain: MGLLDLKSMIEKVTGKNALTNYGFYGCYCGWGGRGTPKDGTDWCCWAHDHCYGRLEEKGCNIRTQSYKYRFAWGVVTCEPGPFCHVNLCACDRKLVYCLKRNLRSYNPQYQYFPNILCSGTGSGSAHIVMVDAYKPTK
The experiment is described as follows: overview table of covalent ligation to inclusion bodies.

Experiment [2] concerns the target T2, Pla2-SnT.
T2 construct: also called Pla2-SnoopTag
T2 chain: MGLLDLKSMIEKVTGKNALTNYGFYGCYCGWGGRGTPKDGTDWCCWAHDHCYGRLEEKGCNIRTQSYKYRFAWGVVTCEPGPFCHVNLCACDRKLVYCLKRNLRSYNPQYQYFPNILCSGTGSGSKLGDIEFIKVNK
The description is as above.

B1: SpyCatcher-SnoopCatcher fusion protein (other)
chain: MSYYHHHHHHDYDS[about 80 residues left out]GKATKGDAHIGSPANLKALEAQKQKEQRQAAEELANAKKLKEQLEKGSHMKPLRGAVFSLQKQHPDYPDIYGAIDQNGTYQNVRTGEDGKLTFKNLSDGKYRLFENSEPAGYKPVQNKPIVAFQIVNGEVRDVTSIVPQDIPATYEFTNGKHYITNEPIPPK
notes: also called SpC-SnC
On to B1, for which the binding result in experiment [1] and in experiment [2] was “binds” each time.
